The results in this text go back to the supplement of paper PMC10723795.

For this experiment, the system named is RPE1. Nature of the experiment: nucleolar normality score relative to DMSO (fraction of DMSO control); RPE1 is a non-cancer human cell line; higher = more normal nucleoli (less nucleolar stress). As to conditions: 24 h.

Counter-ions that a name gives are not always drawn. The list shows a part of the results.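 Rule for the calls: active = more than 2 SD below the DMSO mean: under 0.85 at 10 µM or 0.885 at 1 µM; inactive = the rest.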 Most values come without repeats; read them as rough.
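Note: fixed cells immunolabelled for nucleolin and UBF, 40 image fields per well in 384-well plates, per-cell score = nucleolin nucleolar/nucleoplasm intensity ratio divided by the matching UBF ratio.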

Regarding `O=C1C(=O)N(Cc2ccc(Cl)c(Cl)c2)c2ccccc21` [Apoptosis Activator 2], the nucleolar normality score reads like this: (1 µM) active: 0.855; (10 µM) inactive: 0.858.
Take `O=C(NC1CCOCC1)c1ccc(-c2cc(-c3c[nH]nc3-c3ccccn3)ccn2)cc1`: the nucleolar normality score was inactive: 1.02 (1 µM) and inactive: 1.08 (10 µM).
Take `O=C1c2cccc(O)c2C(=O)c2c(O)cc(CO)cc21` [Aloe-emodin]: the nucleolar normality score runs as follows: (1 µM) inactive: 1.09; (10 µM) inactive: 1.06.
Take `NC(=O)c1ncn([C@@H]2O[C@H](CO)[C@@H](O)[C@H]2O)c1N` [AICAR (Acadesine)]: the nucleolar normality score was inactive: 1.06 (1 µM) and inactive: 1.1 (10 µM).
On to `CC1=C(/C=C/C(C)=C/C=C/C(C)=C/C(=O)Nc2ccc(O)cc2)C(C)(C)CCC1` [Fenretinide], for which the nucleolar normality score by setting is: (1 µM) inactive: 1.04; (10 µM) inactive: 1.07.
On to `CC(c1cc2ccccc2s1)N(O)C(N)=O` (stereo not given) [Zileuton], for which the nucleolar normality score by setting is: (1 µM) inactive: 0.92; (10 µM) inactive: 1.1.
For `CC1=C(C(=O)OC2CCCCC2)C(c2ccc([N+](=O)[O-])cc2)C2=C(CC(C)(C)CC2=O)N1` (stereo not given), in that order: inactive: 0.964 and inactive: 1.06.
On to `O=C(O)CSc1cc(NS(=O)(=O)c2ccc(Br)cc2)c2ccccc2c1O`, for which the nucleolar normality score is, setting by setting: (1 µM) inactive: 0.999; (10 µM) inactive: 1.06.
Turning to `COc1cc(N2CCN(C)CC2)ccc1Nc1nccc(-c2cn(C)c3cnccc23)n1`, the nucleolar normality score reads like this: (1 µM) active: 0.867; (10 µM) inactive: 0.916.
For the molecule `COc1cc2c(cc1O)CC[C@@H]1[C@@H]2CC[C@]2(C)[C@@H](O)CC[C@@H]12` [2-Methoxyestradiol (2-MeOE2)], the nucleolar normality score reads like this: (1 µM) inactive: 0.992; (10 µM) inactive: 1.07.
With `NC(=O)c1cccc2[nH]c(-c3ccc(C4CCCN4)cc3F)nc12` (stereo not given), the nucleolar normality score (1 µM) was inactive: 1.05 and the nucleolar normality score (10 µM) is inactive: 1.08.
For the molecule `O=C(NC[C@H](O)CN1CCc2ccccc2C1)c1ccnc(NC2CCC2)c1`, the nucleolar normality score by setting is: (1 µM) inactive: 0.978; (10 µM) inactive: 0.966.
Consider `NC(=O)c1ccc2nc(-c3ccc(Oc4ccc(Cl)cc4)cc3)[nH]c2c1` [Chk2 Inhibitor II (BML-277)], for which the nucleolar normality score is, setting by setting: (1 µM) inactive: 1.01; (10 µM) inactive: 1.01.
As for `COc1ccnc(C[S+]([O-])c2nc3cc(-n4cccc4)ccc3[nH]2)c1C` (stereo not given) [Ilaprazole], the nucleolar normality score was inactive: 0.99 (1 µM) and inactive: 0.999 (10 µM).
For `COC(=O)c1ccc(O)c(NC(=O)COc2ccc(C34CC5CC(CC(C5)C3)C4)cc2)c1`, in that order: inactive: 1.06 and inactive: 0.978.
In the case of `CC(C)CCN1c2nc(Nc3cc(F)c(O)c(F)c3)ncc2N(C)C(=O)C1C` (stereo not given), the nucleolar normality score by setting is: (1 µM) inactive: 1.09; (10 µM) inactive: 0.905.
As for `O=C1NC(=O)/C(=C/c2ccc(-c3ccc(F)cc3O)o2)S1`, the nucleolar normality score reads like this: (1 µM) inactive: 1; (10 µM) active: 0.839.
For `Cc1cnc(Nc2ccc(N3CCN(C)CC3)cc2)nc1Nc1cccc(S(=O)(=O)NC(C)(C)C)c1`, the nucleolar normality score runs as follows: (1 µM) inactive: 1; (10 µM) inactive: 0.882.
For `Cc1cccc(-c2[nH]c(C(C)(C)C)nc2-c2ccc3nccnc3c2)n1`, in that order: inactive: 1.03 and inactive: 1.02.
As for `COc1ccc(-c2oc3c(CC=C(C)C)c(O)cc(O)c3c(=O)c2O[C@@H]2O[C@@H](C)[C@H](O)[C@@H](O)[C@H]2O)cc1` [Baohuoside I], the nucleolar normality score (1 µM) is inactive: 1.02 and the nucleolar normality score (10 µM) was inactive: 0.929.
For `Nc1cccc(S(=O)(=O)N2CCCN(S(=O)(=O)c3ccc4c(c3)OCCO4)CC2)c1` the same measures were inactive: 0.973 and inactive: 1.04.
Consider `CC[C@H](C)n1cc(C)c2c(C(=O)NCc3c(C)cc(C)[nH]c3=O)cc(-c3ccc(N4CCNCC4)nc3)cc21`, for which the nucleolar normality score is, setting by setting: (1 µM) inactive: 0.96; (10 µM) inactive: 0.967.
For `CC[C@@]1(O)C(=O)OCc2c1cc1n(c2=O)Cc2cc3cc(O)ccc3nc2-1` [(S)-10-Hydroxycamptothecin] the same measures were inactive: 1.05 and active: 0.533.
`CC[C@@]1(O)C(=O)OCc2c1cc1n(c2=O)Cc2cc3cc(O)ccc3nc2-1` [Hydroxy Camptothecine]: the nucleolar normality score is inactive: 1.04 (1 µM) and inactive: 1.08 (10 µM).
For `NC1(c2ccc(-c3nc4ccn5c(=O)[nH]nc5c4cc3-c3ccccc3)cc2)CCC1` the same measures were inactive: 0.976 and inactive: 1.02.
For the molecule `CN(C)CCCNC(=O)c1ccc(-c2cc(O)c3ncccc3c2)cc1`, the nucleolar normality score was inactive: 1.01 (1 µM) and inactive: 1.07 (10 µM).
Take `CC1(C)OC(=O)C=C[C@]2(C)[C@H]3CC[C@@]4(C)[C@H](c5ccoc5)OC(=O)[C@H]5O[C@]54[C@]3(C)C(=O)C[C@@H]12` [Obacunone]: the nucleolar normality score runs as follows: (1 µM) inactive: 0.985; (10 µM) inactive: 0.863.
Regarding `O=c1[nH]cc(F)c(=O)[nH]1` [Fluorouracil (5-Fluoracil, 5-FU)], the nucleolar normality score is inactive: 1.03 (1 µM) and inactive: 1.06 (10 µM).
For `CNC(=O)c1ccc2cc([C@@]3(O)CCn4cncc43)ccc2c1` [TAK-700 (Orteronel)] the same measures were inactive: 0.94 and inactive: 1.02.
Take `N=c1ccn2c(n1)O[C@H]1[C@H](O)[C@@H](CO)O[C@H]12` [Cyclocytidine HCl]: the nucleolar normality score reads like this: (1 µM) active: 0.856; (10 µM) inactive: 0.872.
For `COc1cc2c(cc1OC)-c1cc3ccc(OC)c(OC)c3c[n+]1CC2` [Palmatine], the nucleolar normality score (1 µM) is inactive: 1.03 and the nucleolar normality score (10 µM) is inactive: 1.04.
For `C=CCc1ccc(O)c(-c2ccc(O)c(CC=C)c2)c1` [Honokiol] the same measures were inactive: 1.04 and inactive: 0.907.
In the case of `Cc1cc(-c2nc(-c3ccc(OC(F)(F)F)cc3)no2)nn1Cc1ccnc(N2CCN(C3CC3)CC2)c1`, the nucleolar normality score runs as follows: (1 µM) inactive: 0.98; (10 µM) inactive: 1.03.
As to `CSc1cccc(Nc2ncc3cc(-c4c(Cl)cccc4Cl)c(=O)n(C)c3n2)c1`, the nucleolar normality score (1 µM) is inactive: 1.03 and the nucleolar normality score (10 µM) is active: 0.802.
On to `O=c1c(-c2ccc(O)cc2)coc2cc(O)cc(O)c12` [Genistein], for which the nucleolar normality score (1 µM) is inactive: 1.09 and the nucleolar normality score (10 µM) is inactive: 1.13.
As for `OCc1ccc(-c2ccc(-c3ccc(CO)s3)o2)s1`, the nucleolar normality score (1 µM) was inactive: 0.962 and the nucleolar normality score (10 µM) was active: 0.84.
As for `O=C(O)c1ccc(Nc2ncc3c(n2)-c2ccc(Cl)cc2C(c2c(F)cccc2F)=NC3)cc1`, the nucleolar normality score runs as follows: (1 µM) inactive: 1.01; (10 µM) inactive: 1.02.
For `Cc1nc(Nc2n[nH]c3c2CN(C(=O)N[C@H](CN(C)C)c2ccccc2)C3(C)C)c2sccc2n1`, the nucleolar normality score is, setting by setting: (1 µM) inactive: 1.02; (10 µM) active: 0.817.
For `CCn1cc(-c2ccnc3[nH]c(-c4cccc(CN(C)C)c4)cc23)c(-c2ccc(NC(=O)N(C)C)cc2)n1`, in that order: inactive: 0.965 and active: 0.818.
For `CCC(=O)NS(=O)(=O)c1ccc(-c2c(-c3ccccc3)noc2C)cc1` [Parecoxib Sodium], the nucleolar normality score is, setting by setting: (1 µM) inactive: 1.03; (10 µM) inactive: 1.06.
As for `CCOc1ccn(-c2ccc(F)cc2)c(=O)c1C(=O)Nc1ccc(Oc2ccnc(N)c2Cl)c(F)c1`, the nucleolar normality score is inactive: 0.982 (1 µM) and inactive: 1.02 (10 µM).
For `Oc1ccc(Nc2nc(-c3ccc(Cl)cc3)cs2)cc1` the same measures were inactive: 0.91 and inactive: 1.04.
For `Cc1ccc(C(=O)NCCCCCC(=O)Nc2ccccc2N)cc1` the same measures were inactive: 1.09 and inactive: 1.05.
On to `COc1cc2ncnc(Nc3ccc(Cl)cc3F)c2cc1OC`, for which the nucleolar normality score was inactive: 1.05 (1 µM) and inactive: 0.927 (10 µM).
Turning to `N[C@@H]1CCCN(c2c(/C=C3\SC(=O)NC3=O)cccc2-c2ccccc2)C1`, the nucleolar normality score by setting is: (1 µM) inactive: 0.948; (10 µM) active: 0.792.
`CO[C@H]1C[C@@H]2CC[C@@H](C)[C@@](O)(O2)C(=O)C(=O)N2CCCC[C@H]2C(=O)O[C@H]([C@H](C)C[C@@H]2CC[C@@H](O)[C@H](OC)C2)CC(=O)[C@H](C)/C=C(\C)[C@@H](O)[C@@H](OC)C(=O)[C@H](C)C[C@H](C)/C=C/C=C/C=C/1C` [Rapamycin (Sirolimus)]: the nucleolar normality score (1 µM) was active: 0.862 and the nucleolar normality score (10 µM) was inactive: 0.899.
Take `Cc1[nH]c(/C=C2\C(=O)Nc3ccccc32)c(C)c1CCC(=O)O` [Orantinib (TSU-68, SU6668)]: the nucleolar normality score was active: 0.88 (1 µM) and inactive: 0.944 (10 µM).
Turning to `COc1cc2c(=O)c(-c3ccc(O)cc3)coc2cc1O[C@@H]1O[C@H](CO)[C@@H](O)[C@H](O)[C@H]1O` [Glycitin], the nucleolar normality score is inactive: 0.975 (1 µM) and inactive: 1.09 (10 µM).
For `CCN(CC)CCCC(C)Nc1c2ccc(Cl)cc2nc2ccc(OC)cc12` (stereo not given) [Quinacrine 2HCl] the same measures were active: 0.318 and active: 0.218.
Take `COc1cc(OC)cc(N(CCNC(C)C)c2ccc3ncc(-c4cnn(C)c4)nc3c2)c1`: the nucleolar normality score (1 µM) was inactive: 1.01 and the nucleolar normality score (10 µM) is inactive: 1.
In the case of `C[C@@H](N)[C@H]1CC[C@H](C(=O)Nc2ccncc2)CC1`, the nucleolar normality score (1 µM) is inactive: 1.03 and the nucleolar normality score (10 µM) is inactive: 1.09.
Regarding `CC(C)n1nc(-c2cc3cc(O)ccc3[nH]2)c2c(N)ncnc21` [Torkinib (PP242)], the nucleolar normality score is, setting by setting: (1 µM) inactive: 0.992; (10 µM) inactive: 0.955.
For `C=CC(=O)N1CCN(C(=O)CNc2cc(I)c(Cl)cc2O)CC1` [K-Ras(G12C) inhibitor 12] the same measures were inactive: 1.02 and inactive: 1.02.
With `Cc1ccccc1CN1C(=O)C2=C(CCN(Cc3ccccc3)C2)N2CCN=C12`, the nucleolar normality score runs as follows: (1 µM) inactive: 0.944; (10 µM) inactive: 1.08.
`O=C(CCCCCCNC(=O)c1cnc(N(c2ccccc2)c2ccccc2)nc1)NO` [Ricolinostat (ACY-1215)]: the nucleolar normality score is inactive: 1.01 (1 µM) and inactive: 1.01 (10 µM).
As for `CC(C)CC(=O)Nc1n[nH]c2c1CN(C(=O)C1CCN(C)CC1)C2(C)C`, the nucleolar normality score reads like this: (1 µM) inactive: 1.02; (10 µM) inactive: 0.986.
Take `O=C(NCCS(=O)(=O)c1ccc(C(F)(F)F)cn1)c1ccc(Cl)cc1`: the nucleolar normality score runs as follows: (1 µM) inactive: 1.05; (10 µM) inactive: 1.07.
In the case of `CC(=O)N1c2ccc(-c3ccc(C(=O)O)cc3)cc2[C@H](Nc2ccc(Cl)cc2)C[C@@H]1C`, the nucleolar normality score is inactive: 1.07 (1 µM) and inactive: 1.1 (10 µM).
For `O=C1CN2Cc3c(ccc(Cl)c3Cl)N=C2N1` [Anagrelide HCl], in that order: inactive: 0.996 and inactive: 1.07.
For `Nc1nc(Cl)nc2c1ncn2[C@@H]1O[C@H](CO)[C@@H](O)[C@@H]1F` [Clofarabine], in that order: inactive: 0.985 and inactive: 0.902.
